From the supplement of paper PMC11417369
± gives the standard deviation of the averaged measurements. This is one part of the list.

What follows are sequences tested on PfAP2-G AP2 domain (GST-tagged) (assay: gcPBM binding intensity (ln(normalized median fluorescence intensity)); higher = stronger DNA binding).
Outline: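 After 1 h on an Agilent 4 × 180k array of primer-extended double-stranded 36-bp intergenic genomic probes and negative controls, bound GST-tagged P. falciparum DNA-binding domains were detected with Alexa488 anti-GST antibody and scanned at 488 nm. The domains had been expressed in E. coli, and binding took place in 1× PBS with 1% milk, 0.2 mg/ml BSA, 0.5% salmon testes DNA and 0.03% Triton X-100. Binding intensity is the highest Masliner-normalised natural-log median intensity across replicate spots of either probe orientation.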

Sequence	gcPBM binding intensity (ln)
AGAAAAAATAAAAATAGTACTCAAAAAATTATGAAT [XGTACX_site4908]	11.3 ± 0.8
ACATAAATAATAAAAACACACATATGTACAGATATA [CACACA_site5112]	11.1 ± 0.59
AATGGTACATGATACACACACGCACATATATATATT [CACACA_site3425]	10.8 ± 0.51
ATGTAGATATATATATGTACTAATTAGTAGTTTACG [XGTACX_site6275]	11.1 ± 0.64
AATGGATGGTCCAAATGTACATATATATATATATAT [XGTACX_site4800]	11.1 ± 0.61
TAAATAAACCTGACTTGTACATGTAAAATAAATATA [XGTACX_site1667]	11 ± 0.59
ATTTATATATTGCCCACACACATGTGATTATTTATA [CACACA_site1714]	10.5 ± 0.29
ATATTAAAAAGAAGTGTGCGCAAAACATTAACTTGA	10.6 ± 0.33
TTATATGAAAAAATATGTACGTATAATGAGAAATAT [XGTACX_site8987]	11.5 ± 0.92
AAATAGATAAACTAAACACACAAAAAAAAAAAAAAT [CACACA_site1179]	9.82 ± 0.071
TAATATAACTACATAACACACGAAAATATATGAATC [CACACA_site3628]	9.99 ± 0.14
AAAATAACGAGTCAAACACACATATTTATATTTATA [CACACA_site7050]	9.9 ± 0.11
TCTTTTTTTTTTATTTGTACTTATTTTTTTCAAAAA [XGTACX_site3403]	11.5 ± 0.83
GTTATAAATGCATATACACACATACGTACATACATA [CACACA_site7655]	11.4 ± 0.92
TCATTAATCAGGTATGCATGCATAACTATTAAAAAT [TGCATGCA_site90]	9.785 ± 0.078
ACTTATAAAATAACATGTACAAATATTTATTATATA [XGTACX_site133]	11 ± 0.54
TAAACATAAATATACACACAAACATATATGTATTTT [CACACA_site1214]	9.74 ± 0.15
AAATTATAAATACCTACACACTTATCAAAATAAATT [CACACA_site5280]	9.925 ± 0.064
AAAAAAAAAAAACACACACACACACCGACAAAATAT [CACACA_site8411]	10.1 ± 0.2

Sequence	gcPBM binding intensity (ln)
AAAAAAAAAAGGTGTACATGCAAAATAAATTCTTAA [TGCATGCA_site556]	11.6 ± 1.1
TATGGTAACATATGCTGTACAATATAATATGTTTAA [XGTACX_site1601]	10.9 ± 0.57
TAATAATTTATATATGCATGTCAAAATAATATTAAA [TGCATGCA_site12]	9.92 ± 0.14
TATATAAATATAATATGTACATATAATATGTATATA [XGTACX_site8120]	11.1 ± 0.71
TATATATTTTTATGTGTGCACTGTTTCATAAAAGAA	10.7 ± 0.53
AATATTTTTTTATAAACACACATATATATAAATATA [CACACA_site3524]	9.88 ± 0.11
TATAATGGATGCTAGCTGCACTAATAAGCAAAAATA	10 ± 0.13
GCATAAATCAAACACACACACATATATATATATATA [CACACA_site2422]	10.4 ± 0.7
AATGAATATAGTACTGAATGTAATTTAAGGTTTTCC [CACACA_negctrl_site1548]	10.7 ± 0.58
TAAATGAGAAGGACTGCACACTAAAATGGAAGGAGA [CACACA_site8449]	10.4 ± 0.38
TATTTGTATATATGTGTGCACGTATAATCCATTAAA [GTGCAC_site9569]	10.6 ± 0.38
AAAATTTCAAATAACACACACTAATATATATCTGTA [CACACA_site4904]	9.7 ± 0.19
GATGATATATATTAGCGTACATGTATATATACCATT [XGTACX_site6404]	11.3 ± 0.82
GTGGACGAAATAGTTGTAAATTTATGTGCAAACCTC [XGTACX_negctrl_site564]	10.7 ± 0.47
ATATATATATCATATTGTACATACTTGTATTTATAT [XGTACX_site2432]	10.9 ± 0.67
TCCTTACCTATTAAAGCATGCTCGAATATATATTTT [TGCATGCA_site53]	9.81 ± 0.18
TATATTAAATATTACACACATACATTTAGTGTCAAA [CACACA_site1990]	10.1 ± 0.21
TGGGAGCACAGACACACACACACACCGATATATATA [CACACA_site8001]	10.4 ± 0.38
AACAAAATAAATGTATGTACATATATATATATATAT [XGTACX_site7974]	11.2 ± 0.51

Sequence	gcPBM binding intensity (ln)
AAAAAAAACGAACACACACACAAATATGTAAAAATA [CACACA_site6673]	10.2 ± 0.23
TATATAAATATACAAACACACATACAAACATATATA [CACACA_site4754]	10.12 ± 0.064
GAAAATAAAATAAATGCATGTAAATTTAATGTAATG [TGCATGCA_site996]	10.06 ± 0.085
CACACAATGGCTAGCTGTACATAATATATATCTACA [XGTACX_site4691]	11.1 ± 0.69
TAAAAACAAAAATGTTGTACATAATATAAAACAATT [XGTACX_site6380]	11.2 ± 0.85
AAAAAAAAAAAATGTGCATGCTATATATATATATAT [TGCATGCA_site727]	10.1 ± 0.59
ATATATATATTTACATGTACACATCTATATATAAAC [XGTACX_site5581]	11.5 ± 0.86
TTTTTTTTTCATTATTGTACATTGAAACTTCATTTT [XGTACX_site6041]	10.7 ± 0.3
TTAACAAATAGACACACACACACACGCAAAAAAAAA [CACACA_site6387]	10.5 ± 0.42
TGGTATCAAAAGAATACACACACACCGACATATATA [CACACA_site9265]	10.2 ± 0.13
GAATATAAACATATTACACACATCTATCTGTACATT [CACACA_site5114]	10.6 ± 0.46
GTGGGAAACATAAACACACACAAAAAGAAAAAATAG [CACACA_site4810]	10.2 ± 0.23
AAAATAAAATAATAAAATAAAATAATAATAAAATAA [TGCATGCA_negctrl_site401]	9.3 ± 0.042
AATACATATATATATTGTACATATAGGGAAAAATTA [XGTACX_site2275]	10.9 ± 0.5
TACATACATACATACACACACACATATAAATACATA [CACACA_site4626]	10.5 ± 0.18
TCTCTAACTTTTAATACACACAAATAAATAAATAAA [CACACA_site6245]	10.1 ± 0.37
GTTTTATTTATTTCATGTACACAAAAAAGGTTTTAA [XGTACX_site6525]	11.5 ± 0.94
TATTTTAATATTTGTAGTACAGATTGAAATGACGAA [XGTACX_site4805]	11.6 ± 1.1
AATATAATCTTTCAAAAGAAAAAGACTTCATGAAAA [CACACA_negctrl_site1331]	9.73 ± 0.11
